Source: the supplement of paper PMC11417369
Some of the results follow.

What follows are sequences tested on PfAP2-HC AP2 domain (GST-tagged) (assay: gcPBM binding intensity (ln(normalized median fluorescence intensity)); higher = stronger DNA binding).
In short: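 Binding of GST-tagged P. falciparum DNA-binding domains, expressed in E. coli and used at about 25 μg on average, was carried out for 1 h in 1× PBS containing 1% milk, 0.2 mg/ml BSA, 0.5% salmon testes DNA and 0.03% Triton X-100. The target was an Agilent 4 × 180k array of primer-extended double-stranded 36-bp intergenic genomic probes plus negative controls, read with Alexa488 anti-GST antibody at 488 nm. Binding intensity is the highest Masliner-normalised natural-log median intensity across replicate spots of either probe orientation.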

Sequence | gcPBM binding intensity (ln)
AAAAATAATCATTAGGTGCAAAAAATATATATATAT [GTGCAC_site9631] | 10
TTTTTTTTTTTAAATTCACACAATATATAAATATTG [CACACA_site5201] | 9.5
AACAAATATATATGTAGTACATGTTGTAGATAATTT [XGTACX_site24] | 10.1
AGAAAAATTATTTTGCGTACATATTTACAATAAAAA [XGTACX_site2144] | 9.41
GTACATTATTTATATACACACAAAGAAAAATATACA [CACACA_site3452] | 9.93
TTTAAAATATATAGTACACACGTGAACACAAATACA [CACACA_site4392] | 9.82
TAAAGCATATTATAAACACACACTGTATAAAGATAT [CACACA_site296] | 10
AAAAAAAATATAATATGTACATATCTATATATCAAC [XGTACX_site4881] | 9.79
TATACATATGAAAATACACACATACATACAGATATA [CACACA_site5002] | 10.3
TTGTTTTTAATATCGGTGCAATGGAAAGAAAAGAAG [GTGCAC_site9494] | 9.5
TAACCTATAATATTCACACACATATAAATATTATAG [CACACA_site6592] | 9.97
TTAAAATAAAGTAGTGGTACAAAAAAAAAAAAAAAA [XGTACX_site6322] | 9.55
ATTAAATCGATATATACACACATGTTTGGTATATTC [CACACA_site7285] | 9.77
AGTAATAGTTTGTGCACACTCAAGTATATCATATAT [CACACA_site4034] | 10.2
TTTTACTTAAAACACACACACACAAAAAAAAAAAAA [CACACA_site947] | 10.6
TTTTTCAGAAAAGAAACACACATATTTATATTTATA [CACACA_site7167] | 9.59
TATATGTATATATATTAACACACAAAAAAAAAAAAA [CACACA_site8534] | 9.75
TAAACAAATAAATAAACACACAATATCTGTATTTAT [CACACA_site5978] | 9.75
AATAAATTAGAAGGATGTACTTTGTTTAATATAGAG [XGTACX_site1943] | 9.62
TAATATAATCTGAGTGCACACAAATAAATAAACATA [CACACA_site8032] | 9.94
AGGTTATATATGAACAAAAATAAAATATTCATAGGC [TGCATGCA_negctrl_site46] | 9.77
TATGCAAATTAATAATGTACGAAATATTTATAATTT [XGTACX_site2324] | 9.54

Sequence | gcPBM binding intensity (ln)
AAAAGGAACGGACACACACACATATATATATATATA [CACACA_site5894] | 10.9
ATGTTATAAAATATATGTACATATTTATATAAAATA [XGTACX_site5766] | 9.59
ATATTATATATATGATGTACTAAATATATTATTATG [XGTACX_site1703] | 9.6
TATTTTATATTATCATGTACAAAAAAAAAGAAAAGA [XGTACX_site5379] | 9.44
ATAAATAATTAGAATTGTACAAAAATTATATATATG [XGTACX_site5107] | 9.72
ATATATTTATATAAATGTACACGTGAATATATAATA [XGTACX_site1166] | 9.79
TATATAAAAAGTAATTGTACATATATATATATATAT [XGTACX_site7953] | 9.6
TCTATTAATGAATATACACACATTATATATATATAT [CACACA_site5410] | 9.94
TTTATATTCTTTTTTTAACACACAAAAAAAATAAAA [CACACA_site8574] | 9.4
ATATGTAAAATGAAGATACATACATACATACATACA [CACACA_negctrl_site715] | 10
GTATATTTAAATAAAAGTACGTAAAGATATATTTAA [XGTACX_site8087] | 9.89
ATAATATGCAATATTACACACAATTCATCATTTTTT [CACACA_site7477] | 9.85
AAAAAAAAAAAACACACACACACATACAAAATATAT [CACACA_site1448] | 11.3
ACATATGAATATTTTTGTACGTATATTGTTATTCTT [XGTACX_site4720] | 10.2
TTTTTTTTTATTATCATGCACACATTTTTTTTTTTT [CACACA_site2254] | 9.99
AATTATACGAAATAAAACTTAATAGACAAAAAATTA [CACACA_negctrl_site1384] | 9.57
GTAATTTAAATAACAAGTACTAATGTGGATAAGCAG [XGTACX_site1163] | 9.83
ATTTTGTATTGACGCTGTACAAACATTAATATAATA [XGTACX_site2496] | 9.45
TTTTGCGTAGCAACGAGGTTTTTAAAAATGTAACCA [GTGCAC_negctrl_site691] | 9.34
AACAAAATAAAACACACACACAAATGTACATATATA [CACACA_site2424] | 10.6
TAGAAGCATCATTTTACACACATGCAAATGTAAACT [CACACA_site6973] | 9.73
TATATATATATATATAAGCTTATAATAAAACAAAAA [XGTACX_negctrl_site568] | 9.82
